From the supplement of paper PMC4166925
± gives the standard deviation of the averaged measurements. In all, about 33,000 sequences were measured (“E-score (dimensionless, -0.5 to 0.5)”: median about -0.049, highest 2% from about 0.37 on). The list shows a part of the results.

These sequences were tested on T1, PmTbr T-box DNA-binding domain (GST fusion) (assay: PBM E-score of 8-mer (E-score (dimensionless, -0.5 to 0.5)); Tbr is Tbrain of the sea star Patiria miniata (Pm) or the sea urchin Strongylocentrotus purpuratus (Sp); higher = stronger binding preference; most listed sequences are background and not binding sites). Conditions: the construct has about 5 more residues each side.
T1 sequence: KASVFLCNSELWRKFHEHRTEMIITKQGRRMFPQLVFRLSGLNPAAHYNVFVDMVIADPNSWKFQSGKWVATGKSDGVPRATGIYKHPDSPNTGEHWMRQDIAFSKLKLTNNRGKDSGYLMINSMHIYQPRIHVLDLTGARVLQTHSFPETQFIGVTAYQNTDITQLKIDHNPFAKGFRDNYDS
Description: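 Universal protein-binding microarray (Agilent AMADID 016060, 60-bp probes with a 35-bp variable region) incubated with 200 nM GST-fused Patiria miniata Tbr T-box DNA-binding domain (residues 272-466) in PBS pH 7.5. Scored for every ungapped 8-mer (given with its reverse complement) by the Universal PBM Analysis Suite as E-score (modified Wilcoxon-Mann-Whitney enrichment, range -0.5 to 0.5; >0.45 counts as bound) and Z-score of median probe intensity. Two replicate arrays (datasets 1 and 2).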
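Also: 200 nM protein in PBS on universal arrays averaged over duplicate arrays.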

In order of rising “PBM E-score of 8-mer” value:
1. AAAGCCCC  -0.334 ± 0.025
2. GCATGGAC  -0.319 ± 0.036
3. ATTCCCAA  -0.313 ± 0.045
4. CAGCCCTG  -0.294 ± 0.015
5. GTCTTTTA  -0.293 ± 0.013
6. CTACAGCC  -0.28 ± 0.059
7. AGTTGGGG  -0.28 ± 0.12
8. GGTCCTTA  -0.279 ± 0.02
9. AGCCCCTG  -0.276 ± 0.062
10. CCATCGGA  -0.262 ± 0.034
11. CCCGAGGA  -0.249 ± 0.021
12. CTTTGATA  -0.246 ± 0.022
13. CTTTGATC  -0.243 ± 0.0065
14. AACCCTAA  -0.24 ± 0.0083
15. ATTCAAGA  -0.232 ± 0.022
16. TCCCGTAA  -0.228 ± 0.042
17. ATTAATGA  -0.228 ± 0.05
18. GAGATGCA  -0.227 ± 0.071
19. ATGCTGGG  -0.226 ± 0.066
20. ACGAGGAT  -0.221 ± 0.012
21. AAAGGTAA  -0.21 ± 0.041
22. ATTGCTCA  -0.196 ± 0.025
23. CGCTTGAA  -0.191 ± 0.056
24. ATAAACGA  -0.189 ± 0.005
25. CAGCGGAC  -0.185 ± 0.011
26. AGGCGAAT  -0.177 ± 0.025
27. ACGGTCGA  -0.175 ± 0.016
28. CCCTCTTC  -0.173 ± 0.0054
29. ATTTGCTC  -0.171 ± 0.029
30. GCGGGCCC  -0.171 ± 0.093
31. CTGGATTC  -0.168 ± 0.033
32. AAGCAATA  -0.168 ± 0.089
33. AGCGTCCT  -0.167 ± 0.046
34. CGTTCCGC  -0.165 ± 0.053
35. TGACTCAA  -0.164 ± 0.014
36. CCAGCCCG  -0.162 ± 0.033
37. AACGTAAA  -0.16 ± 0.053
38. CAATCCGG  -0.156 ± 0.057
39. CGTCCGAA  -0.154 ± 0.043
40. CCATGCTC  -0.154 ± 0.043
41. CGCATGTA  -0.154 ± 0.013
42. AGGAGGAG  -0.152 ± 0.061
43. GCACGGGC  -0.146 ± 0.0018
44. AGAGGCCG  -0.144 ± 0.0017
45. AAACAATC  -0.141 ± 0.063
46. ATAGGCCC  -0.141 ± 0.098
47. AGTTATAA  -0.14 ± 0.013
48. CGATCGAG  -0.138 ± 0.031
49. CGCATGCG  -0.137 ± 0.05
50. CAGACCGG  -0.136 ± 0.057
51. CATGCCCA  -0.134 ± 0.068
52. ACAGGGCC  -0.133 ± 0.027
53. CAAAGCAG  -0.133 ± 0.039
54. GCTCCCAC  -0.129 ± 0.041
55. ACTGCTCA  -0.125 ± 0.026
56. AGGCCAAC  -0.124 ± 0.03
57. ATTTTCAA  -0.116 ± 0.085
58. CAATCCCA  -0.116 ± 0.062
59. ATGGGATA  -0.116 ± 0.062
60. ATAGGTCC  -0.107 ± 0.048
61. AAGTCGGC  -0.106 ± 0.012
62. ATTGATGC  -0.105 ± 0.0063
63. ACTTCCTC  -0.105 ± 0.012
64. CAAACTAC  -0.105 ± 0.015
65. CAAAAGAA  -0.103 ± 0.064
66. CAAGATTA  -0.103 ± 0.079
67. ATATAAAA  -0.102 ± 0.0067
68. GCTTTCGA  -0.101 ± 0.042
69. ATGTCAGG  -0.0995 ± 0.032
70. CGACGCAG  -0.0974 ± 0.005
71. GCTTTTAC  -0.0958 ± 0.037
72. GGCAGAAA  -0.0936 ± 0.045
73. AACTGCAC  -0.0895 ± 0.086
74. CTCTGTGC  -0.0888 ± 0.082
75. CTCCTTAC  -0.0874 ± 0.042
76. GCGGTTAA  -0.0858 ± 0.055
77. CTGAATCA  -0.0806 ± 0.082
78. ATCTTTAA  -0.0751 ± 0.039
79. CCCTAATC  -0.0746 ± 0.04
80. CTGCGCTC  -0.0738 ± 0.024
81. AGAGAGCT  -0.0721 ± 0.087
82. CTAGGAAC  -0.0704 ± 0.05
83. ACGAAAGG  -0.058 ± 0.024
84. AACGGCTA  -0.0547 ± 0.041
85. CCGGCACA  -0.0527 ± 0.09
86. ATACATGG  -0.0525 ± 0.051
87. CTGGTTTA  -0.0523 ± 0.0055
88. ATCTTTTA  -0.0392 ± 0.0051
89. ATCAGAGG  -0.0373 ± 0.014
90. CTGAATGA  -0.037 ± 0.014
91. TAAAGGTA  -0.0352 ± 0.019
92. ACATAGAA  -0.0327 ± 0.1
93. ACGGTTTA  -0.0318 ± 0.025
94. AAACTTTC  -0.0307 ± 0.056
95. CGGTGTTC  -0.0289 ± 0.062
96. GTTGTTTA  -0.0255 ± 0.029
97. ACGAAGTC  -0.0232 ± 0.071
98. AAGACAAA  -0.022 ± 0.03
99. AGTACACA  -0.0177 ± 0.081
100. CCAGATCG  -0.0111 ± 0.037
101. GCTGAAGA  -0.00965 ± 0.017
102. GAAAACCA  -0.00925 ± 0.096
103. GCGGCCGC  -0.00922 ± 0.042
104. ACCAGTCG  -0.00829 ± 0.055
105. CAAAAGGA  -0.00677 ± 0.051
106. AGTGCCCG  -0.00573 ± 0.076
107. ATCTTGGA  -0.00237 ± 0.041
108. CTCGTCTA  0.00098 ± 0.044
109. ATCGCATA  0.00104 ± 0.018
110. AAAGCCGT  0.00793 ± 0.079
111. ATTGTTTC  0.00872 ± 0.0024
112. AGATTCCG  0.0096 ± 0.0062
113. AAGGAGCC  0.00965 ± 0.022
114. AATTTACG  0.00998 ± 0.098
115. GACGAACA  0.0114 ± 0.05
116. CAGCTACC  0.0123 ± 0.028
117. AGTTCCGC  0.0134 ± 0.019
118. AGGGGCGC  0.0211 ± 0.039
119. CCAGGCCG  0.0213 ± 0.025
120. AGATTTTC  0.0361 ± 0.063
121. GACCTAGC  0.0365 ± 0.092
122. ATAGAAGG  0.0407 ± 0.046
123. CGTCAGAC  0.0426 ± 0.046
124. ACTTATCT  0.0528 ± 0.011
125. GACGTCAA  0.0558 ± 0.01
126. CTTGTCTC  0.0562 ± 0.053
127. ATTACAAC  0.0578 ± 0.049
128. ACTCTAGA  0.0643 ± 0.0049
129. CGTGGACA  0.0649 ± 0.0042
130. AGAGAAAG  0.0684 ± 0.065
131. ATACCTCA  0.0693 ± 0.043
132. CAACTGTA  0.0741 ± 0.023
133. CGCAACAG  0.0766 ± 0.031
134. ACTTATAT  0.0812 ± 0.011
135. AAGTACAC  0.0873 ± 0.06
136. CACTAAAG  0.0928 ± 0.034
137. CAACGACG  0.0999 ± 0.029
138. CGCTAGTC  0.109 ± 0.0089
139. AACGGCGC  0.111 ± 0.047
140. AGATTGTG  0.12 ± 0.0052
141. CAGAGAAA  0.122 ± 0.043
142. GTGAACGA  0.123 ± 0.056
143. CCCACTTA  0.125 ± 0.012
144. ATAACAAG  0.135 ± 0.083
145. ATGTCGTG  0.135 ± 0.011
146. AACCGTTG  0.136 ± 0.03
147. GGTACGAA  0.137 ± 0.025
148. AACAGCTG  0.143 ± 0.069
149. CACGGCAG  0.145 ± 0.023
150. ACATTAAC  0.15 ± 0.044
151. ACGCGTCT  0.151 ± 0.041
152. ATCCAAAT  0.153 ± 0.015
153. ACGTGAGG  0.159 ± 0.04
154. CACGAGAA  0.16 ± 0.057
155. AAAACTGC  0.178 ± 0.06
156. AGCTGCCA  0.18 ± 0.026
157. GTCCTCAC  0.18 ± 0.017
158. ATCGTGTC  0.192 ± 0.028
159. AGCGTGTG  0.198 ± 0.039
160. GCATAACA  0.2 ± 0.047
161. CGAGACAC  0.234 ± 0.04
162. ATGATGTG  0.238 ± 0.0093
163. GTTTTTCA  0.241 ± 0.035
164. CCACTTCG  0.254 ± 0.028
165. ACACTCAT  0.26 ± 0.0097
166. TCTCGACA  0.291 ± 0.0033
167. ACAGGCGT  0.299 ± 0.04
168. CTCGTGAA  0.304 ± 0.012
169. GCAAGTGC  0.321 ± 0.043
170. CGCACATA  0.35 ± 0.013
171. CACCTAAC  0.408 ± 0.028
172. GCTCACAC  0.424 ± 0.01
